Assay results from patent US10233201B2, “Class of HDAC inhibitors expands the renal progenitor cells population and improves the rate of recovery from acute kidney injury” (University of Pittsburgh—Of the Commonwealth System of …, priority 2012, dated 2019).

Tested on: conditionally-immortalized mouse podocyte cell line
Assay: Podocyte cytotoxicity assay (Cell Titer-Blue)
Conditions: 72 hours, three experiments
Method: Podocytes are polarized epithelial cells located on the glomerular basement membrane that contribute to the integrity of the filtration barrier. For the purposes of these experiments, they function as an indicator of renal toxicity. Following 72 hours of treatment with each compound concentrations ranging from 30 μM to 3 nM, podocyte viability was assessed by measuring residual metabolic activity (FIG. 30). […] Of the 15 analogs tested, only two, TSA and apicidin, caused sufficient cytotoxicity to allow the calculation of an E50 value. […] Treatment with PTBA or each of 12 structural analogs never decreased podocyte viability below the 50% threshold, even when tested at 30 μM (FIG. 30). […]
The isolation and characterization of conditionally-immortalized mouse podocyte cell line have been previously described (Mundel, P. et al. Rearrangements of the cytoskeleton and cell contacts induce process formation during differentiation of conditionally immortalized mouse podocyte cell lines. Exp Cell Res 236, 248-258, (1997) and Schwartz, E. J. et al. Human immunodeficiency virus-1 induces loss of contact inhibition in podocytes. J Am Soc Nephrol 12, 1677-1684, (2001)). […] After incubation, cytotoxicity was analyzed using the Cell Titer-Blue Cell Viability Assay (Promega) per manufacturer's instructions. […] Fluorescence was read at 79 560Ex/590Em on a Gemini SpectramaxXS (Molecular Devices) plate reader. […]

Compound	mean E50 (concentration where 50% of the exposed podocytes remained viable) [nM]
CC(/C=C/C(=O)NO)=C\[C@@H](C)C(=O)c1ccc(N(C)C)cc1 [TSA, trichostatin A]	96
CCC(=O)CCCCC[C@@H]1NC(=O)[C@H]2CCCCN2C(=O)[C@H]([C@@H](C)CC)NC(=O)[C@H](Cc2cn(OC)c3ccccc23)NC1=O [apicidin, reference compound]	152
